In publication PMC4624786:
These are yes or no findings as the source states them, for the method shown. In cells and extracts the contact can be indirect. Some results given as binding are weak or reduced against the parent protein; the word gives no strength. For part of these data: Where a sequence is shown, tags or fusion partners need not be part of it.

Amino acid sequences for entries named in this document (tags omitted). A change or cut given only in a name is not applied to a line headed by its entry.
UniProt P70182: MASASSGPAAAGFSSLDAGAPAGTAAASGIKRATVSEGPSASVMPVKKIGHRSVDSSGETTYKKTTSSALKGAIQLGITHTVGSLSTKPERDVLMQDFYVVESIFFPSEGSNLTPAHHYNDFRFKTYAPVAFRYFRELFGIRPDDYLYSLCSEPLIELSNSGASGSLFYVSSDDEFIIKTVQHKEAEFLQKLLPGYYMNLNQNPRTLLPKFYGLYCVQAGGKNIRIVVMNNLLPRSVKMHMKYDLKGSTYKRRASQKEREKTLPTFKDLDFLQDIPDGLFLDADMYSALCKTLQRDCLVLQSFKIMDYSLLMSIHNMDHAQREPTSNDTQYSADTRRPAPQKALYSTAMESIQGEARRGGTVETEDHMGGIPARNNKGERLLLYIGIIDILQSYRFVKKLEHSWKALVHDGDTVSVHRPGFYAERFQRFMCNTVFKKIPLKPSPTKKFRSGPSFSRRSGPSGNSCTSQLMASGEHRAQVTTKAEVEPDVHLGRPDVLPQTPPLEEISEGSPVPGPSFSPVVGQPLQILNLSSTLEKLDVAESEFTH
UniProt Q80SW1: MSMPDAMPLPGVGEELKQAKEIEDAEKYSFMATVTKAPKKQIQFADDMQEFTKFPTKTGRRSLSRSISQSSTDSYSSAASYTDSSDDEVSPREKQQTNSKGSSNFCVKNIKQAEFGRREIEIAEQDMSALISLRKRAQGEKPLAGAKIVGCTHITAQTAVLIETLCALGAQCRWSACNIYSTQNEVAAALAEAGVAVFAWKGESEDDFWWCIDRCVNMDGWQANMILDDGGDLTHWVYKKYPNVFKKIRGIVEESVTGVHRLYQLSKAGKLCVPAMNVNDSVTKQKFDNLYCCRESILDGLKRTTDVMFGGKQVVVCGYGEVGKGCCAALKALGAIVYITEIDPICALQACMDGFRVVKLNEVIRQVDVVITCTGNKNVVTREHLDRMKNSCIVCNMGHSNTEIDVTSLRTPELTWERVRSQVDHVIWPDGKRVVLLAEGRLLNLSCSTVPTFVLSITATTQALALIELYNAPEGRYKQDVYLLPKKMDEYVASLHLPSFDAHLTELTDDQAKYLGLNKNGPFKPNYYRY

Key:
myc-PIPKIα D389A (mouse) = myc-PIPKIα D389A (mouse) (UniProt P70182); test: co-IP; COS-7 cells co-transfected with HA-IRBIT and myc-PIPK constructs; lysis buffer 10 mM Hepes pH 7.4, 100 mM NaCl, 2 mM EDTA, 1% Nonidet P-40; precipitated with anti-HA or anti-myc antibody and protein G-Sepharose at 4°C; Western blot
[1] = biological target: T1, myc-tagged phosphatidylinositol phosphate kinase type IIα (rat) (UniProt Q9R0I8); test: as above
T1 sequence: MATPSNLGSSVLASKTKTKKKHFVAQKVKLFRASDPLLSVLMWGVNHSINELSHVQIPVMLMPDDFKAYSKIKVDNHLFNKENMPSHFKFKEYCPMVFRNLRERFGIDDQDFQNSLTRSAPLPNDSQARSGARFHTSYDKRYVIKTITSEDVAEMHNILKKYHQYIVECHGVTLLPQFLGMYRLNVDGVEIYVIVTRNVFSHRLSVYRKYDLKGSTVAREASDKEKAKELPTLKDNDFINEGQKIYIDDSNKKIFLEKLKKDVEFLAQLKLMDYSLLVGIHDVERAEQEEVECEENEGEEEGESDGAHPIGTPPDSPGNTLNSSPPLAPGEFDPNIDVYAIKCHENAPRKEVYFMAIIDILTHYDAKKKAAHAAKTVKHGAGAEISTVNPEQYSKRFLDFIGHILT

[2] = biological target: T2, N-terminal cytoplasmic domain of NBCe1-B (residues 1–468) fused to maltose-binding protein (UniProt Q9Y6R1); test: pull-down; COS-7 cell lysates (myc-PIPKIα or myc-PIPKIIα with or without HA-IRBIT) incubated with 5 μg MBP fusion protein for 1 hr at 4°C, amylose resin, washed with lysis buffer, eluted with 100 mM maltose; Western blot; only the target purified
T2 sequence: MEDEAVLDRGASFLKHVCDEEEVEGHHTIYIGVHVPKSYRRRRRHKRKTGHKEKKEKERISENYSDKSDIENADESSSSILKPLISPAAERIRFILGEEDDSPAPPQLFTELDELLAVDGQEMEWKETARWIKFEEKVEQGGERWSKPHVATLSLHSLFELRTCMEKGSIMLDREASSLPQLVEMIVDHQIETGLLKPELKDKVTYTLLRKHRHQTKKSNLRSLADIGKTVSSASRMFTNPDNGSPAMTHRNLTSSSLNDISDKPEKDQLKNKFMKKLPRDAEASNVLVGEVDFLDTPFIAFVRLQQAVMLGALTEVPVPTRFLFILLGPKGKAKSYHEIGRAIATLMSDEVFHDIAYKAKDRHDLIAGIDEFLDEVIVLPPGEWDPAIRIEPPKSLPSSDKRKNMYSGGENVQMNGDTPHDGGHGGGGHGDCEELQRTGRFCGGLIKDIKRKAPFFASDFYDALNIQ

Measured: binding

Hemagglutinin (HA)-tagged IRBIT (IP3R-binding protein released with inositol 1,4,5-trisphosphate) (from UniProt Q80SW1 1-530)
binds: myc-PIPKIα D389A (mouse) | [1] | [2]
